# Assay results taken from the RNAGym collection of RNA variant scans (doi:10.1093/nar/gkz1192).
# Read counts are not given, so values of variants with three or more changes are uncertain.
# B1: CPEB3 Ribozyme (parent)
# chain: UAACAGGGGGCCACAGCAGAAGCGUUCACGUCGCAGCCCCUGUCAGAUUCUGGUGAAUCUGCGAAUUCUGCUGUAUAUCUC
# Variants of: B1
# Test: self-cleavage, relative activity (ratio to wild type); higher = more cleavage; in vitro, sequencing
# Procedure, shortened: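 Barcoded CPEB3 ribozyme mutants, produced by rounds of error-prone PCR, self-cleaved while being transcribed with T7 RNA polymerase for 5 hours at 37°C and during a subsequent 15 min DNase I step before EDTA was added. Sequencing of template-switched cDNA on Illumina gave cleaved and total reads, and DNA sequencing assigned barcodes to variants. Each variant's relative activity is its cleaved/total read fraction divided by the unmutated ribozyme's fraction, averaged across three batches. A variant needed a minimum of 5 reads.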
row,Variant,self-cleavage
1,U26A G33A A35G U49A C50U,0.22
2,U25G C37U U54C,0.2
3,U26A U31C A45G U54A,0.54
4,U26A C40U G46U U58C,0.07
5,U26A G30A G61A,0.06
6,U25C U41A A65G U66C U72C,0.07
7,U26A U41A A45U G61A U72C,0.13
8,U26A C40A G55U U69C,0.11
9,U25C U43C U54C U58G U80C,0.17
10,U25C U43C U72A U80C,0.25
11,U25C U31A C38A,0.11
12,U25G U43A U54C,0.38
13,U26A U49C A56G U72C,1.1
14,U25G U41C U54C U72C,0.27
15,U25C U43A U60C U76C,0.09
16,U25C U43A U72C U78C,0.3
17,U25G G30A A45G U74A U80C,0.12
18,U25C U54A U80C,0.27
19,U25G U49C U51A,0.07
20,U25C U41A U43A U51C U54C A64G,0.08
21,U26A U41C U51C,0.74

row,Variant,self-cleavage
1,U25C U58A U72C U80C,0.08
2,U25C U60A U69G,0.27
3,U25C U41A U51C A57G A65G U69A,0.05
4,U26A A28U C29G U31C A35G,0.2
5,U25C U31A C40U U43C A64G C68A,0.07
6,U25C U41C U48C U60C,0.07
7,U26A A28G A64U U66C,0.17
8,U25G A64U U66C,0.06
9,U25G U54C G70C,0.2
10,U26A A28C A56G,0.2
11,U25C U41A A57U,0.2
12,U26A U48A U54A A64G U78C,0.14
13,U25C U41C U43C U49C,0.4
14,U26A U66A U67C A75G U78C,0.05
15,U26A A35C U54C C62U,0.11
16,U25C U41C G53A U69A,0.09
17,U25G U51C U60C U67A,0.06
18,U25C U72C U78A,0.42
19,U26A U48C U49C U74G A75U U78C,0.31
20,U26A U41C A47G A75G U80C,0.27
21,U25C U43A U60C,0.43

row,Variant,self-cleavage
1,U25C U41A A64C,0.24
2,U26A U41C A56U U67C,0.14
3,U26A A28G U31C U66C,0.14
4,U26A A57G U66G,0.39
5,U25C U66C C81U,0.15
6,U25C U41A U51C A56G U80C,0.06
7,U26A U51C U58A,0.11
8,U25C U43G A45G U54G G63A U76C,0.1
9,U26A U49C U78A,0.28
10,U25C U48C U69A,0.41
11,U25C U31A U69C U72C,0.09
12,U26A U31A A64G U69A,0.13
13,U26A U41C U69A,0.32
14,U25C U43C G61A A65U,0.18
15,U26A U48C A64G U69C,0.26
16,U25C U43C A45G A75U,0.23
17,U25C U48C A56C A64G,0.13
18,U26A C29U A35U U48G U67A U72A,0.06
19,U25C U31A U43C U67C,0.16
20,U26A A28U A35C A45G,0.21
21,U25C U58C U60C U67C,0.11

row,Variant,self-cleavage
1,U25C U41A A77G,0.03
2,U26A U31C A57G,0.37
3,U25C U31C U43C A64G,0.16
4,U25G U31C U78C,0.12
5,U26A A45U U49C U76A,0.05
6,U25C U51A A56U,0.11
7,U25C U31A U72C,0.07
8,U26A G55A G63U,0.56
9,U25C U48G U74G,0.44
10,U26A U58C U72C U80C,0.41
11,U26A A47G U49C U80C,0.29
12,U26A A28U A65G,0.27
13,U25C U41A G63A,0.44
14,U25C U41A A47G U58A U66C,0.09
15,U25G A35U U60A A64G A65G U67C,0.06
16,U26A A28C A45G A77G,0.49
17,U25C U43C A56G,0.06
18,U26A A35G U54C,1.16
19,U26A U41C A45U A56G,0.25
20,U25C U49A U66A,0.18
